# Assay results published in PubChem BioAssay AID1347120 (National Center for Advancing Translational Sciences (NCATS), 2019).
# The whole screen tested about 390,000 compounds, of which about 930 (0.24%) were called active. This list was built around the results that the source calls inconclusive (neither active nor inactive); the mix of calls is not that of the screen. The call rests on the fitted dose curve; in most records, active means well fitted activation curve with a large enough effect; inconclusive means small, poorly fitted or top-dose-only effect; inactive means no such curve, though single readings can be large or run the other way. A potency beside an inconclusive call is a rough fit, not a confirmed value.
# Assay: qHTS for Suppressors of FUS Proteinopathy: Primary screen using FUS-linked yeast assay; further: nearly all actives have a fitted effect of over 55% in size
# Conditions: S. cerevisiae FUS-expressing, OD600, 24 h; Potency: growth rescue; series mostly up to 76.6 µM
# Method in brief: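 Toxicity suppression screen in FUS-yeast. Cells induced with 2% galactose, starting OD 0.005, treated 24hr at 30C with compounds at multiple final concentrations; growth by OD600.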
# Potency means the concentration at half of the fitted maximal effect; tags describe the fitted curve by direction and shape.
row,Structure (SMILES),Potency
1,Cc1nc(N2CCC(C)CC2)c2oc3ccccc3c2n1,inactive
2,Cc1cccc(-n2nc(C)c(C(=O)Nc3cc(C)ccc3C)c2-n2cccc2)c1,inactive
3,CCc1ccc([C@H]2C(C(=O)O)=C[C@@H](C(C)(C)C)N2S(=O)(=O)c2ccc(C)cc2)cc1,inactive
4,O=C(O)CCCNc1cc(N2CCN(C(=O)c3ccco3)CC2)c2noc3c2c1C(=O)c1ccccc1-3,"inconclusive: 35.5 µM [activator, single point]"
5,CC(C)(C)OC(=O)N1CCC[C@H]1c1nnc(SCc2ccc(Cl)cc2Cl)o1,"inconclusive: 28.2 µM [activator, single point]"
6,C=CCC[C@@H](Cc1ccc(F)cc1)C(=O)OC[C@H](C)NC(=O)[C@@H](CC=C)CC(=O)N[C@@H](CO)Cc1ccccc1,"inconclusive: 31.6 µM [activator, single point]"
7,Cc1ccccc1NC(=O)Cc1nc(COC(=O)CCC(=O)c2ccccc2)cs1,"inconclusive: 35.5 µM [activator, single point]"
8,CCCOc1cccc(C(=O)Nc2cc(NC(=O)c3ccco3)ccc2OC)c1,"inconclusive: 31.6 µM [activator, partial curve, poor fit]"
9,CCCNC(=O)c1cn(CC)c2cc(N3CCN(C(=O)c4ccco4)CC3)c(F)cc2c1=O,"inconclusive: 10 µM [activator, partial curve, poor fit]"
10,Cc1ccccc1-c1cc2nc(OCC3CCCO3)n(C)c(=O)c2s1 (centres undefined),"inconclusive: 31.6 µM [activator, single point]"
11,COc1cc(NC(=O)c2csc(N)n2)cc(C(=O)Nc2cccc(C(F)(F)F)c2)c1,"inconclusive: 28.2 µM [activator, single point]"
12,COCC1CCCN(Cc2nc(C(c3ccccc3)c3ccccc3)no2)C1 (centres undefined),"inconclusive: 25.1 µM [activator, partial curve, poor fit]"
13,Cc1nc(NC(=O)c2ccccc2)sc1-c1csc(NCCc2ccccc2)n1,"inconclusive: 2.82 µM [activator, full curve, poor fit]"
14,COC(=O)c1cc(-c2ccc(C)cc2)c2c(=O)n(C)c(=O)n(C)c2n1,inactive
15,COc1cc(NC(=O)CN2C(=O)NC(c3ccccc3)(c3ccccc3)C2=O)c(C)cc1[N+](=O)[O-],"inconclusive: 31.6 µM [activator, single point]"
16,Cc1ccccc1OCC(=O)NNC(=S)NC(=O)c1ccco1,inactive
17,Cc1ccc(NCc2cccn2-c2nnc(N3CCC(C(=O)NCCc4ccc(Cl)cc4)CC3)s2)cc1,"inconclusive: 14.1 µM [activator, partial curve, poor fit]"
18,COc1cc(NCC(=O)Nc2cccc(S(=O)(=O)N3CCCCC3)c2)cc(OC)c1OC,"inconclusive: 35.5 µM [activator, partial curve, poor fit]"
19,COc1cccc(CN(C)C(=O)c2ccc(Cl)c(S(=O)(=O)N3CCCCCC3)c2)c1OC,"inconclusive: 15.8 µM [activator, partial curve, poor fit]"
20,CCOc1ccccc1C1CC(=O)Nc2c1c(=O)n(C)c1ncnn21 (centres undefined),inactive

row,Structure (SMILES),Potency
1,N=C1/C(=C/c2ccc(-c3cccc(C(=O)O)c3)o2)C(=O)N=C2SC(CC(=O)N3CCOCC3)=NN12,"inconclusive: 56.2 µM [activator, partial curve, poor fit]"
2,COc1cc(Sc2ccc(C)cc2)c(OC)cc1N,"inconclusive: 7.08 µM [activator, partial curve, poor fit]"
3,CCOC(=O)[C@@]12CN(C(=O)OC(C)(C)C)CC=C1N(Cc1ccc(OC)cc1)C(=O)[C@H]2CC(=O)NCC1CCCCC1,"inconclusive: 20 µM [activator, partial curve, poor fit]"
4,Cc1cccc(N2CCN(C(c3ccccc3)c3nnnn3CC3CCCO3)CC2)c1C (centres undefined),"inconclusive: 35.5 µM [activator, partial curve, poor fit]"
5,CC(=O)Nc1ccc(N2C(=O)CSC2c2c(F)cccc2Cl)cc1 (centres undefined),inactive
6,COc1ccc2c(c1)c(CC(=O)Nc1ccc(C)cc1)c(C)n2C(=O)c1ccc(Cl)cc1,"inconclusive: 44.7 µM [activator, partial curve, poor fit]"
7,COc1cc(NC(=O)Cn2c(=O)n(CC3CCC(C(=O)NCCc4ccccc4)CC3)c(=O)c3ccccc32)cc(OC)c1 (centres undefined),"inconclusive: 50.1 µM [activator, single point]"
8,COc1cc2cc(CNc3ccccc3)c(=O)n(CC(=O)Nc3cccc(Cl)c3C)c2cc1OC,"inconclusive: 28.2 µM [activator, partial curve, poor fit]"
9,Cc1cccc(NC(=O)CN2C(=O)N/C(=C/c3cc(C)n(C(C)C)c3C)C2=O)c1,active: 20 µM
10,Cc1nc(SCc2nc3ccccc3[nH]2)c2oc3ccc(Br)cc3c2n1,"inconclusive: 35.5 µM [activator, single point]"
11,CCCCOc1ccc(CNC(=O)c2cccc(NC(=O)N3CCSc4ncccc43)c2)cc1,inactive
12,COC(=O)[C@]12C[C@H](CC(=O)N3CCCCC3)C(=O)N(Cc3ccco3)C1=C[C@H](COCc1ccccc1)O[C@@H]2C,inactive
13,C(=N\Nc1nc(-c2ccccc2)cs1)/c1ccncc1,"inconclusive: 44.7 µM [activator, single point]"
14,Nc1nc2ccccc2cc1C(=O)NCCCCc1ccccc1,inactive
15,O=C(NCc1cccc(Cl)c1)c1c2c(nc3ccccc13)C(=O)N(C1CCCCC1)C2,inactive
16,O=C(c1ccc(Cl)cc1)[C@@H]1[C@@H]2C(=O)N(c3cccc4ccccc34)C(=O)[C@@H]2C2c3ccccc3C=NN21 (some centres undefined),"inconclusive: 35.5 µM [activator, single point]"
17,CC1CN(C(=O)N2CCC(C(=O)NCCCc3ccccc3)CC2)c2cc(Cl)ccc2O1 (centres undefined),inactive
18,COc1ccc(CN(C(=O)CN2C(=O)NC3(CCC(C)CC3)C2=O)C(C)Cc2cccs2)cc1 (centres undefined),"inconclusive: 28.2 µM [activator, single point]"
19,C[C@@H]1CN([C@@H](C)CO)C(=O)c2cccc(NC(=O)Nc3cccc4ccccc34)c2O[C@H]1CN(C)S(=O)(=O)c1ccc2c(c1)OCCO2,"inconclusive: 14.1 µM [activator, partial curve, poor fit]"
